This test deals with T1, GST-17NAnk (GST-tagged N-terminal (1–305) zDHHC17) (murine, UniProt Q80TN5 1-305).
T1 construct: zDHHC17, murine cDNA, N-terminal residues 1–305 with the AR domain; also called GST-17Ank; GST-tagged AR-containing cytosolic region of zDHHC17; source: E. coli BL21(DE3)pLysS, purified (glutathione resin)
T1 sequence (looked up): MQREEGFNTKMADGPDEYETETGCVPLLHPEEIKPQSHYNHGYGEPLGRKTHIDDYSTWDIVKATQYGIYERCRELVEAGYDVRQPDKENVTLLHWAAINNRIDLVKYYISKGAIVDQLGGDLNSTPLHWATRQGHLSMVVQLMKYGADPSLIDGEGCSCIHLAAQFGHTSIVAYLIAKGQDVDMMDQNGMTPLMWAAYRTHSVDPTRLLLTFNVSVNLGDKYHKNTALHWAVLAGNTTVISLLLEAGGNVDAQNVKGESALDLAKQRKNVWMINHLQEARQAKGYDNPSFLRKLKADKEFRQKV
Briefly: pull-down; 20 μg GST-17NAnk (or GST) on 10 μl glutathione-Sepharose, 20 μg His6-CSPα or His6-SNAP25b(93–206) (and competing amounts of the other), overnight at 4 °C, PBS washes, Coomassie staining. The following applies: both partners purified.

B1: His6-SNAP25b([…]) (domain or fragment)
chain: not shown
notes: source: E. coli BL21(DE3)pLysS, purified (Ni2+-NTA)
With B1, the binding result is “binds”.
